In a collection of fitness landscapes (doi:10.1016/j.celrep.2020.107928):
The full ranking holds about 81,000 sequences; the median of “one-hybrid fitness for binding NBS DNA” is about -0.1, and the highest 2% start at about 0.36. Some of the results follow.

B1: Caulobacter ParB omega fusion; a variant is named by its letters at X, in order, B8GW30 (parent)
chain: MESVVVGEPGMSEGRRGLGRGLSALLGEVDAAPAQAPGEQLGGSREAPIEILQRNPDQPRRTFREEDLEDLSNSIREKGVLQPILVRPSPDTAGEYQIVAGERAWRAAQRAGLKTVPIMVRELDDLAVLEIGIIENVQRADLNVLEEALSYKVLMEKFERTQENIAQTIGKSXSHVANXMRLLXLPDEVQSYLVSGELTAXHARAIAAAADPVALAKQIIEGGLSVRETEALARKAPNLSAGKSKGGRPPRVKDTDTQALESDLSSVLGLDVSIDHRGSTGTLTITYATLEQLDDLCNRLTRGI

Variants of: B1
Experiment: one-hybrid fitness for binding NBS DNA (the Noc-binding site; scaled: cognate 1, non-cognate 0); higher = stronger binding
Settings: with NBS DNA site
How it was run: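 Selection: bacterial one-hybrid in E. coli USO, HIS3 reporter with the site 19 bp from the promoter, 48 hours at 37°C on M9-minus-histidine plus 0.1 mM IPTG and 5 mM 3-AT. Libraries were Caulobacter ParB with four randomised specificity codons, sequenced on Illumina before and after selection. Fitness is the rescaled log change in variant-to-wild-type read ratio, anchored to the cognate and non-cognate sites.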

| Variant | one-hybrid fitness for binding NBS DNA |
| --- | --- |
| GYRT | ≤ 0.2 |
| TNVG | ≤ 0.2 |
| YNSL | ≤ 0.2 |
| THWS | ≤ 0.2 |
| RTFV | ≤ 0.2 |
| THFG | ≤ 0.2 |
| HAQW | ≤ 0.2 |
| AFRG | ≤ 0.2 |
| AKCD | ≤ 0.2 |
| FALR | ≤ 0.2 |
| MFRR | ≤ 0.2 |
| SETG | ≤ 0.2 |
| TEPH | ≤ 0.2 |
| SMQR | ≤ 0.2 |
| CTVS | ≤ 0.2 |
| TWQG | ≤ 0.2 |
| NWPG | ≤ 0.2 |
| PYAK | ≤ 0.2 |
| AVPR | ≤ 0.2 |
| PMMT | ≤ 0.2 |
| NPGC | ≤ 0.2 |

| Variant | one-hybrid fitness for binding NBS DNA |
| --- | --- |
| AARP | ≤ 0.2 |
| VQPT | ≤ 0.2 |
| FICR | ≤ 0.2 |
| NDQT | ≤ 0.2 |
| TYAC | ≤ 0.2 |
| LLGS | ≤ 0.2 |
| SENV | ≤ 0.2 |
| SDWM | ≤ 0.2 |
| MYRF | ≤ 0.2 |
| HYSG | ≤ 0.2 |
| VNLE | ≤ 0.2 |
| LLWK | ≤ 0.2 |
| DTHA | ≤ 0.2 |
| VMNA | ≤ 0.2 |
| LLMY | ≤ 0.2 |
| EGQC | ≤ 0.2 |
| ACRN | ≤ 0.2 |
| RAQR | 0.43 |
| QTCG | ≤ 0.2 |
| LKIC | ≤ 0.2 |
| PRQT | ≤ 0.2 |

| Variant | one-hybrid fitness for binding NBS DNA |
| --- | --- |
| YCYF | ≤ 0.2 |
| QSED | ≤ 0.2 |
| KDTC | ≤ 0.2 |
| TPSC | ≤ 0.2 |
| NGGV | ≤ 0.2 |
| INLG | ≤ 0.2 |
| IKEV | ≤ 0.2 |
| TFYF | ≤ 0.2 |
| MHIY | ≤ 0.2 |
| CTAF | ≤ 0.2 |
| ILVY | ≤ 0.2 |
| KLVV | ≤ 0.2 |
| NHFR | ≤ 0.2 |
| CRSG | ≤ 0.2 |
| DLMH | ≤ 0.2 |
| TCYV | ≤ 0.2 |
| AVRL | ≤ 0.2 |
| AYVC | ≤ 0.2 |
| HGQT | ≤ 0.2 |
| SSFE | ≤ 0.2 |
| RPWS | ≤ 0.2 |

| Variant | one-hybrid fitness for binding NBS DNA |
| --- | --- |
| WANC | ≤ 0.2 |
| KARE | ≤ 0.2 |
| KTTE | ≤ 0.2 |
| TNQE | ≤ 0.2 |
| PRQY | ≤ 0.2 |
| VTQC | ≤ 0.2 |
| GASD | ≤ 0.2 |
| NYHY | ≤ 0.2 |
| QPWC | ≤ 0.2 |
| VHST | ≤ 0.2 |
| LSEG | ≤ 0.2 |
| MCAT | ≤ 0.2 |
| YLIL | ≤ 0.2 |
| RFPN | ≤ 0.2 |
| ISWC | ≤ 0.2 |
| TSNR | ≤ 0.2 |
| KRKL | ≤ 0.2 |
| TIHS | ≤ 0.2 |
| APSK | ≤ 0.2 |
| QANT | 0.462 |
| GRFE | ≤ 0.2 |
